# Among all 4,800 compounds or so, about 410 (8.5%) showed an effect of 50% or more. The list shows a part of the results.
# Test system: Plasmodium falciparum
# Test: Confirmatory screen in NF54 pLDH assay, in single point, at 2uM, 72h
# Type: functional, Erythrocyte
# Settings: timepoint 72 hour
row,Structure (SMILES),% Inhibition [%]
1,CC(C)CC(=O)N1CC[C@H](CC(=O)NCc2ccccc2)C1,12
2,COC(=O)c1ccc(N(Cc2ccccc2O)c2ncc(C(F)(F)F)cc2Cl)c(F)c1,-19
3,CCOc1ccc([C@@H](Nc2nc(C)cc(C)n2)c2cc(C)sc2NC(=O)c2ccccc2)cc1,8
4,c1cc(CN2CCC3(CC2)OCCO3)c2c(c1)OCCO2,9
5,Cc1csc(NC(=O)NCCc2cc(F)cc3c2OCOC3)n1,-14
6,CCOC(=O)CC1(S(=O)(=O)Nc2cccc3ccccc23)CC1,0
7,COc1cccc2nc(C[C@H]3CN(CC(C)C)CC[C@H]3CC(=O)O)[nH]c12,-7
8,CC(=O)c1nc2cc(F)c(N3CCOCC3)cc2nc1C,-13
9,CCOc1ccc2c(n1)CCN(C(=O)c1ccc(OC)cc1)C2,-5
10,CCn1ccc([C@H](C)NC(=O)c2cc(C)c(C)s2)n1,-4
11,Cc1ccc(NC(=O)N2CCCN(c3ccc(NC(=O)c4cccs4)cc3C(=O)NCc3ccc(F)cc3)CC2)cc1,21
12,O=C(NC1CCCC1)c1n[nH]c(=O)c2ccccc12,7
13,Cc1cccc(NC(=O)CCC(=O)OCC(F)(F)F)c1C,-1
14,CCN(CC)[C@@H](CNC(=O)CCc1c(C)nn(C)c1C)c1ccco1,5
15,O=C(C[C@H]1CCC(=O)N(CC2CC2)CC1)Nc1ccccc1F,3
16,CCN(CC)c1nc(Nc2ccc(Cl)c(Cl)c2)nc(Nc2cc(C)ccc2C)n1,8
17,O=C(COc1ccc(F)cc1)N1CCc2nc(OCC3CC3)ccc2C1,13
18,Cc1ccc(NC(=O)c2ccc3c(-c4ccccc4)onc3c2)cc1,-17
19,O=C(NCCc1nnc[nH]1)C1(Cc2ccccc2)CC2CCC1C2 (stereo unspecified),-5
20,COc1ccc(C(=O)Nc2cnccc2-n2nc(C)cc2C)cc1,0
21,COC[C@H](NC(=O)c1cccc(F)c1Cl)C(N)=O,-6
22,CN(C(=O)Cn1c(=O)n(-c2cc(F)cc(F)c2)c(=O)c2sccc21)c1ccccc1,9

row,Structure (SMILES),% Inhibition [%]
1,Cc1cccc(CC(=O)N[C@@H](C)CCC(=O)O)c1,11
2,CCOC(=O)C1CCN(c2cc3c(cc2NC(=O)c2cccc(C)c2)n(C)c(=O)n3C)CC1,4
3,Cc1cc(C(=O)NC(C2CC2)C2CC2)c(C)o1,-21
4,Cc1nn(C)cc1-c1nnc(-c2ccccc2)o1,-6
5,COc1ccc(S(=O)(=O)N2C[C@@H]3CCCN3c3cc(C(F)(F)F)ccc32)cc1,15
6,O=C(Cn1c(=O)n(-c2cc(F)cc(F)c2)c(=O)c2sccc21)NCc1ccc2c(c1)OCO2,-6
7,N#Cc1cccc(-c2c[nH]c(CNc3nc4cc(C(F)(F)F)ccc4s3)n2)c1,7
8,Oc1cc(CC[C@H]2CCCCN2)cc(-c2cnc3ccccc3n2)c1,80
9,C[C@H]1CCN(c2ncc(Cl)cc2Cl)CCS1(=O)=O,-11
10,Cc1ccccc1CNC1C(=O)NCCC1C (stereo unspecified),-2
11,CCC1C(=O)CC(c2ccco2)NC1c1ccco1 (stereo unspecified),13
12,Cc1ccc(NC(=O)Nc2cc(C)ccc2N2CCCN(Cc3ccc(F)cc3)C2=O)cc1,30
13,O=S(=O)(Cc1ccccc1)N1CCN(C2CCCCCC2)CC1,1
14,c1cc(-c2cn3c(COc4ccc5c(c4)OCO5)nnc3s2)ccn1,15
15,CCN1CCC2CCC(C1)N2C(=O)Nc1ccc(OC2CCC2)c(F)c1 (stereo unspecified),-18
16,C[C@@H](N)C(=O)N1CCc2cc(-c3ccccc3)ccc21,11
17,CC1CN(CC(=O)NCCC#N)C(C)CO1 (stereo unspecified),1
18,CS(=O)(=O)N1C[C@@H]2CCCN2c2cc(C(F)(F)F)ccc21,14
19,Nc1ncc(C(=O)N2CCC3(CCCCCC3)C2)s1,98
20,Cc1cc(N2CCC(O)CC2)nc(N2CCC(O)CC2)c1C#N,2
21,Cc1noc(-c2cc(=O)[nH]c3ccccc23)n1,13
22,COc1ccc(CC(=O)N(c2ccccc2)c2ccccc2)cc1,5

row,Structure (SMILES),% Inhibition [%]
1,Cc1nnc(NC(c2cnc3ccccc3c2)[C@H]2C[C@@H](O)C2)s1 (stereo partly specified),12
2,COc1ccccc1[C@@H]1CC(c2cccn2C)=NN1C(=O)CN(CCN1CCOCC1)C(C)=O,7
3,O=C(Nc1ccc(N2CCC(Cc3ccccc3)CC2)cc1C(=O)O)c1ccccc1F,-14
4,Cc1nnc2ccc(S(=O)(=O)N(Cc3ccc(F)cc3)c3cccc(Cl)c3)cn12,14
5,Cc1ccc(Cl)cc1N1CCN(C(=O)c2ccc3noc(-c4ccc(F)cc4)c3c2)CC1,-13
6,CN(C)c1ccc(CNC2CCCCCC2)cc1,-13
7,COc1cccc(NC(=O)N2CC(O)CC2C2CCCCC2)c1 (stereo unspecified),-3
8,COc1ccc(CCc2nc(NC(=O)c3nc(C)sc3C)n[nH]2)cc1OC,-14
9,CCOC(=O)c1sc(NC)nc1C(F)(F)F,-14
10,COc1ccc(C(=O)N(CCO)CCN2CCOCC2)c(OC2CCCC2)c1,11
11,Cc1nn(C)c(=O)n1-c1ccc(Oc2ccccc2)cc1,-5
12,COCC(=O)N[C@H]1CC[C@H](CO)CC1,2
13,O=C(Cc1ccc(C(=O)Nc2nc(-c3ccccc3)cs2)cc1)c1ccccc1,12
14,CCCN1CC(=O)N(c2ccc(C)cc2)[C@@H]2CS(=O)(=O)C[C@@H]21,9
15,Cc1nc2cc(NC(=O)[C@@]3(C)CCCN(C(=O)c4ccccc4)C3)ccc2o1,3
16,O=C(NC(c1ccccc1)c1ccccc1)C1=COCCO1,-14
17,CC1CCC2C(C1)c1c(nc(O)n(-c3ccccc3)c1=O)OC2(C)C (stereo unspecified),13
18,Cc1nn(C)c(Oc2cccc(F)c2)c1NC(=O)CC(C)C,2
19,CC(C)Oc1nccnc1NC[C@](C)(O)c1cccc(Cl)c1,-6
20,Cc1cc(N)n(-c2nc(-c3ccccc3)cc(=O)[nH]2)n1,-1
21,O=S(=O)(Nc1ccc2nncn2c1)c1c(F)cccc1Cl,-18
22,Cc1cnc(C2CCN(C(=O)[C@@H]3CNC(=O)O3)CC2)s1,2

row,Structure (SMILES),% Inhibition [%]
1,CCCN(CC(=O)O)S(=O)(=O)c1cccc(C)c1Br,-23
2,Cc1c(F)cccc1NC(=O)N1CCN(C2=CC3=N[C@@H](C)CN3C=N2)CC1,54
3,COc1ccc(CCc2nnc(NC(=O)Cc3c(C)noc3C)[nH]2)cc1OC,1
4,O=S1(=O)NC(c2ccccc2)(c2ccccc2)c2ccccc21,-5
5,Cc1c(Cl)cccc1S(=O)(=O)N1CCN(c2cccnc2)C(=O)C1,7
6,COC(C)[C@H](C)NCC(C)c1ccccc1 (stereo partly specified),-6
7,CC(C)c1ccc(-c2nc(CN3CCCCC3)cc(CN3CCCCC3)c2O)cc1,95
8,COCc1cc(=O)n(CC(=O)Nc2cccc(C)c2C)c(N2CCOCC2)n1,13
9,COc1ccc(CNCc2ccc(C)cc2)cc1Cn1ccnc1,69
10,CC(=O)Nc1ccccc1CC(c1c[nH]c2ccccc12)c1c[nH]c2ccccc12,0
11,CCN(C(=O)Cn1cc(-c2ccccc2)c2ncn(CC)c(=O)c21)c1ccccc1,-5
12,CCN(C)[C@H]1CCN(c2cc(C(F)(F)F)ccn2)C1,-17
13,CC(=O)Nc1cc2c(cc1NC(C)=O)N(C(C)=O)CC2,-7
14,Cc1nc(C2CC2)nc(N2CCN(C(=O)N(C)C)CC2)c1Cc1ccccc1F,-5
15,CC[C@@](C)(CCO)NCc1nccn1C,9
16,Cc1cc(C)cc(CN2CCCN(c3ccc(C)cc3NC(=O)Cc3ccc(F)cc3)C2=O)c1,13
17,COC(=O)CNCc1ccccc1Cl,0
18,O=C(N[C@H]1CCN(CC2CCCC2)C1)c1nccc2cccnc12,-9
19,CCOCC(=O)Nc1ccc(OC(F)(F)F)cc1,-14
20,Cc1nc(C(=O)NC[C@H]2CN(c3nncs3)CCO2)c(C)s1,-14
21,CC(C)(C)c1cc([C@H](c2ccc(Cl)cc2)N2CCCCC2)cc(C(C)(C)C)c1O,7
22,CC(C)n1cc(S(=O)(=O)Nc2cc(F)ccc2Cl)c2cccnc21,1

row,Structure (SMILES),% Inhibition [%]
1,O=c1[nH]c2ccsc2c(=O)n1CCc1ccccc1,-11
2,NCc1ccc(O)c(Br)c1,6
3,O=C(CCc1nc(CN2CCN(S(=O)(=O)c3ccc(F)cc3)CC2)no1)N1CCCC1,-4
4,CCc1onc(C)c1NCc1cnc(C(C)(C)C)s1,-4
5,Cc1ccc(NC(=O)c2c(Cl)cccc2Cl)c2c1CC(C)(C)O2,-21
6,CN(C(=O)C1CC=CC1)c1ccc(NC(=O)C2CC=CC2)cc1Cl,-13
7,COCCCN(Cc1c(C)nn(-c2cccc(F)c2)c1N1CCN(C)CC1)S(=O)(=O)c1ccc2ccccc2c1,8
8,Cc1cc(C)n2cc(COC(=O)Cn3c(C)cc4ccccc43)nc2n1,2
9,O=C(CC(O)c1cccc(F)c1)NCCC1CCCCO1 (stereo unspecified),8
10,CC(C)N(C(=O)c1cc(O)nc2ccccc12)C1CC1,10
11,CC1CCCCC1OCCN1CCOCC1C(N)=O (stereo unspecified),7
12,CCc1nc2c(C(=O)N3CCOc4c(C)cc(C)cc43)ccnc2[nH]1,60
13,CNC(=O)c1cc(Br)cnc1NC,10
14,O=C(NCCc1cnc2c(Cl)cnn2c1)[C@@H]1CC=CCC1,-25
15,C#C[C@H](C)OC(=O)c1cccc(Nc2cnccn2)c1,10
16,Cc1cnccc1NCCNC1CCN(c2ccc3c(c2)CCC3)CC1,77
17,Cc1ccc(C(=O)c2ccc(NC(=O)c3ncn(-c4ccc(Cl)cc4)n3)cc2)cc1,-9
18,COc1cccc(C(=O)NCC(=O)N2CC=C(c3ccccc3)C2)c1,12

# From ChEMBL document CHEMBL4888484, “Replenishing the malaria drug discovery pipeline: Screening and hit evaluation of the MMV Hit Generation Library 1 (HGL1) against asexual blood stage Plasmodium falciparum ,using a nano luciferase reporter read-out” (2022)
